Measured values from patent US20220267410A1 (UNIVERSITAT STUTTGART, published 2022).

T1: human TNFR2 on stably transfected cells (MEF-TNFR2, HeLa-TNF-R2) (human, UniProt P20333 23-461)
T1 construct: whole, on cells; Same receptor on two transfected cell lines; the cell line is named under assay; also called human TNF receptor 2
T1 sequence (looked up): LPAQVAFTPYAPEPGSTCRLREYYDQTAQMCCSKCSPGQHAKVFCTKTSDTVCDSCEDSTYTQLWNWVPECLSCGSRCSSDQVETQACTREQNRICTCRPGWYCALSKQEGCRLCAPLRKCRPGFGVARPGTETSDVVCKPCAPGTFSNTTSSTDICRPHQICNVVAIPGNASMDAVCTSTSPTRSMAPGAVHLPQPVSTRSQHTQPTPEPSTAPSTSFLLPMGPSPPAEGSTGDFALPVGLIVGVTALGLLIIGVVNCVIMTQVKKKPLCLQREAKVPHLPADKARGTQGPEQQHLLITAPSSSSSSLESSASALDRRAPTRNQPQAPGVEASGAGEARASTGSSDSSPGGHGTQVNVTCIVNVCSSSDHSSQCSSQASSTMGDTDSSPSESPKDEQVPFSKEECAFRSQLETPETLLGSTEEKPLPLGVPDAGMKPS

T2: human TNFR1 on stably transfected mouse embryonic fibroblasts (MEF-TNFR1) (human, UniProt P19438 30-455)
T2 construct: whole, on cells
T2 sequence (looked up): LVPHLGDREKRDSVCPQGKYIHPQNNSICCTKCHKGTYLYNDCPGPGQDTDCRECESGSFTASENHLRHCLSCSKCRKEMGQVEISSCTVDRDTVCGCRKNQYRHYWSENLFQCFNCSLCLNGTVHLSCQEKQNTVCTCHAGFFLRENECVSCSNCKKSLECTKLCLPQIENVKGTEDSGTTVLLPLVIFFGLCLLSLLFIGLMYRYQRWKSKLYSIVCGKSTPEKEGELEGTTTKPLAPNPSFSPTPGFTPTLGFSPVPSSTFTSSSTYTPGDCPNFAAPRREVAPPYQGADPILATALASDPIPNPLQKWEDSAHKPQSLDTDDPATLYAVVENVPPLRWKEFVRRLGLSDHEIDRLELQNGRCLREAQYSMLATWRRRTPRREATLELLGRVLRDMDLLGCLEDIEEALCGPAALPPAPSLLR

B1: scTNFR2(139)-Fc(Δab) (744) (Fc fusion)
chain: [about 150 residues not given here]GGGGSDKPVAHVVANPQAEGQLQWLNRRANALLANGVELRDNQLVVPSEGLYLIYSQVLFKGQGCPSTHVLLTHTISRIAVSYQTKVNLLSAIKSPCQRETPEGAEAKPWYEPIYLGGVFQLEKGDRLSAEINRPDYLNFRESGQVYFGIIALGGGGSDKPVAHVVANPQAEGQLQWLNRRANALLANGVELRDNQLVVPSEGLYLIYSQVLFKGQGCPSTHVLLTHTISRIAVSYQTKVNLLSAIKSPCQRETPEGAEAKPWYEPIYLGGVFQLEKGDRLSAEINRPDYLNFRESGQVYFGIIALGGSGGGGSGGDKTHTCPPCPAPPVAGPSVFLFPPKPKDTLMISRTPEVTCVVVDVSHEDPEVKFNWYVDGVEVHNAKTKPREEQYNSTYRVVSVLTVLHQDWLNGKEYKCKVSNKGLPSSIEKTISKAKGQPREPQVYTLPPSRDELTKNQVSLTCLVKGFYPSDIAVEWESNGQPENNYKTTPPVLDSDGSFFLYSKLTVDKSRWQQGNVFSCSVMHEALHNHYTQKSLSLSPGK
notes: Hexavalent dimer through the Fc(Δab) region; no His tag
B2: scTNFR2(118)-Fc(Δab) (745) (Fc fusion)
chain: [about 150 residues not given here]GGGGSSSRTPSDKPVAHVVANPQAEGQLQWLNRRANALLANGVELRDNQLVVPSEGLYLIYSQVLFKGQGCPSTHVLLTHTISRIAVSYQTKVNLLSAIKSPCQRETPEGAEAKPWYEPIYLGGVFQLEKGDRLSAEINRPDYLNFRESGQVYFGIIALGGGGSSSRTPSDKPVAHVVANPQAEGQLQWLNRRANALLANGVELRDNQLVVPSEGLYLIYSQVLFKGQGCPSTHVLLTHTISRIAVSYQTKVNLLSAIKSPCQRETPEGAEAKPWYEPIYLGGVFQLEKGDRLSAEINRPDYLNFRESGQVYFGIIALGGSGGGGSGGDKTHTCPPCPAPPVAGPSVFLFPPKPKDTLMISRTPEVTCVVVDVSHEDPEVKFNWYVDGVEVHNAKTKPREEQYNSTYRVVSVLTVLHQDWLNGKEYKCKVSNKGLPSSIEKTISKAKGQPREPQVYTLPPSRDELTKNQVSLTCLVKGFYPSDIAVEWESNGQPENNYKTTPPVLDSDGSFFLYSKLTVDKSRWQQGNVFSCSVMHEALHNHYTQKSLSLSPGK
notes: as for B1

How the values were obtained:
[1] = target: T1, human TNFR2 on stably transfected cells …; assay: flow cytometry on HeLa-TNF-R2 cells after 3 days at 37 °C in 50% human blood plasma, experiment 2
Description: (§1) FIG. 10: Stability of scTNFR2-Fc(Δab) complexes in human blood plasma. The integrity of the scTNFR2-Fc(Δab) complexes after incubation for 0 days (control), 3 days or 8 days in 50% human blood plasma at 37° C. was tested by their ability to bind HeLa-TNF-R2 cells in flow cytometry. The percentage of intact protein (mean±S. D., n=4) was calculated from reciprocals of the EC₅₀ values which were normalized to the non-incubated control (100%). Statistical analysis was performed by two-way ANOVA and Dunnett's post-test. Results were summarized as ****p <0.0001; ***p <0.001; **p <0.01; *p <0.05; n. s.=not significant.
(§2) The stability of the scTNFR2-Fc(Δab) proteins in human blood plasma after incubation periods of 3 and 8 days at 37° C. was assayed by binding of protein samples to HeLa cells stably overexpressing TNF-R2 (HeLa-TNF-R2, Richter et al., 2012, Mol. Cell Biol. 32, 2515-2529). […] After incubation, samples were stored at −80° C. and thawed prior testing the protein integrity by binding to HeLa-TNF-R2 in flow cytometry. […] Bound protein was detected with goat anti-human IgG Fcγ fragment specific-R-phycoerythrin antibody (Jackson ImmunoResearch, 1:500) for 1 h at 4° C. After two final washing steps with FACS buffer, cells were analyzed with a MACSQuant® VYB flow cytometer equipped with a 586/15 nm filter for detection of phycoerythrin.

[2] = target: T1, human TNFR2 on stably transfected cells …; assay: flow cytometry on HeLa-TNF-R2 cells after 3 days at 37 °C in 50% human blood plasma, experiment 1
Description: as §1, §2

[3] = target: T1, human TNFR2 on stably transfected cells …; assay: flow cytometry on HeLa-TNF-R2 cells after 8 days at 37 °C in 50% human blood plasma, experiment 4
Description: as §1, §2

[4] = target: T2, human TNFR1 on stably transfected mouse …; assay: flow cytometry on MEF-TNFR1 cells
Description: FIG. 7: TNF-R2 selective binding of scTNFR2-Fc(Δab) complexes on MEF-TNF-R2. Mouse embryonic fibroblasts stably transfected with either human TNF-R2 (MEF-TNF-R2) or human TNF-R1 (MEF-TNF-R1) were tested for binding of the scTNFR2-Fc(Δab) complexes by flow cytometry. The scTNFR2-Fc(Δab) complexes bound selectively to MEF-TNF-R2, whereas binding to MEF-TNF-R1 could not be detected (n=1).
The binding of the scTNFR2-Fc(Δab) complexes to mouse embryonic fibroblasts (MEFs) stably transfected with human TNFR1 (MEF-TNFR1) or human TNFR2 (MEF-TNFR2) (Krippner-Heidenreich et al., 2002, J. Biol. Chem. 277, 44155-44163) was analyzed by flow cytometry. To this, cells were trypsinized and washed once in ice-cold FACS buffer (PBS, 2% FBS, 0.05% sodium azide). 200,000 cells per sample were incubated with serially diluted scTNFR2-Fc(Δab) complexes in 100 μl FACS buffer for 2 h at 4° C. Next, unbound proteins were removed by two washing steps with FACS buffer, followed by detection with Anti-Human IgG (γ-chain specific)-R-Phycoerythrin antibody (Sigma-Aldrich, 1:500) for 1 h at 4° C. After two final washing steps with FACS buffer, cells were analyzed with a MACSQuant® Analyzer 10 equipped with a 585/40 nm filter.

| Binder | EC50 [1] | EC50 [2] | EC50 [3] | binding result [4] |
| --- | --- | --- | --- | --- |
| B1 | 0.0598 nM | 0.0618 nM | 0.0869 nM | no binding |
| B2 | 0.0685 nM | – | 0.0938 nM | no binding |
